Reference: PubChem BioAssay AID902 (National Center for Advancing Translational Sciences (NCATS), 2007)
Where “and” joins values, the source holds several entries; their conditions need not be identical. Equal entries are not always repeated. Among all 130,000 compounds or so, about 1,900 (1.5%) were called active. Inconclusive means that the source gave no clear call. Such entries were picked first, then a sample of the others. The call rests on the fitted dose curve; in most records, active means well fitted cell-killing curve with a large enough effect; inconclusive means small, poorly fitted or top-dose-only effect; inactive means no such curve, though single readings can be large or run the other way. A potency beside an inconclusive call is a rough fit, not a confirmed value.

Test: qHTS Screen for Compounds that Selectively Target Cancer Cells with p53 Mutations: Cytotoxicity of p53ts Cells at the Nonpermissive Temperature; further: nearly all actives have a fitted effect of over 55% in size
Details: H1299-p53A138V viability at 39C, ATP luminescence, 24 h; activity change, negative = cell killing: at 46.1 µM (top of the series)
On the % scale 0 is the no-effect control and ±100 the full control effect; potency means the concentration at half of the fitted maximal effect; tags describe the fitted curve by direction and shape.

Structure (SMILES) | Potency | activity change, negative = cell killing
O=c1cc(-c2ccccc2O)oc2cc(O)ccc12 | inconclusive: 6.31 µM [cytotoxic, partial curve] | –
CCn1c2c(c(=O)n3ncc(C(=O)N4CCN(c5ccccc5)CC4)c13)CN(Cc1ccc(OC)cc1)CC2 | inconclusive: 0.0025 µM [cytotoxic, full curve, poor fit] | –
Cc1cc(=O)n(Cc2cccc(Cl)c2)c2c1c(C)nn2C | inconclusive: 15.8 µM [cytotoxic, partial curve, poor fit] | –
Cc1ccc(NC(=O)Nc2nnc(SCC(=O)N3CCCCC3)s2)cc1 | inconclusive: 7.94 µM [cytotoxic, partial curve] | –
CC(C)c1ccc2c(c1)NC(c1ccc(F)cc1)=NC(c1cccs1)=N2 | inconclusive: 12.6 µM [cytotoxic, single point] | –
Cc1cccc(C(=O)NCCc2nc3ccccc3n2Cc2ccccc2Cl)c1 | inactive | –
COc1ccc(C2=Nc3ccc(F)cc3NC(c3cccc(C(F)(F)F)c3)=N2)cc1 | inconclusive: 31.6 µM [cytotoxic, single point] | –
CCCOc1ccc(C(=O)N(Cc2ccccc2Cl)C2CCS(=O)(=O)C2)cc1 (centres undefined) | inconclusive: 15.8 µM [cytotoxic, partial curve] | –
O=C(COc1ccc(F)cc1)NCC(c1ccc(Cl)cc1)N1CCCCC1 (centres undefined) | inconclusive: 35.5 µM [cytotoxic, single point] | –
COc1cc(OC)c(-c2cc(C(=O)NCc3ccc(F)cc3)c3c(-c4ccccc4)[nH]nc3n2)cc1OC | inconclusive: 15.8 µM [cytotoxic, single point] | –
C/C(=C\C(=O)c1ccccc1)Nc1cccc(O)c1 | inconclusive: 10 µM [cytotoxic, partial curve] | –
Cc1cc(C)cc(NC(=O)Nc2ccc3nc(N4CCN(C)CC4)cc(C)c3c2)c1 | active: 12.6 µM | –
O=C1c2ccccc2C(=O)N1c1cccc(-c2csc(Nc3ccc4c(c3)OCO4)n2)c1 | inconclusive: 14.1 µM [cytotoxic, single point] | –
CCCCCn1c(SCC(=O)OCC)nc2cc(C(=O)NCc3ccco3)ccc2c1=O | inactive | –
CC(C)CCNC(=O)CCC(=O)NNc1nc2ccccc2c2nc(-c3ccccc3)nn12 | inconclusive: 10 µM [cytotoxic, partial curve, poor fit] | –
O=C(Nc1cccc(C(F)(F)F)c1)c1cc(-c2ccc3c(c2)OCCO3)on1 | inconclusive: 7.94 µM [cytotoxic, partial curve] | –
CCCn1c(NCc2cccc(OC)c2O)nc2ccccc21 | inactive | –
Cc1cccc(N2CCN(S(=O)(=O)c3csc(C(N)=O)c3)CC2)c1C | inconclusive: 10 µM [cytotoxic, partial curve] | –
CC(C)C(=O)Nc1ccc(NC(=O)c2ccccc2Cl)nc1 | inconclusive: 10 µM [cytotoxic, partial curve] | –
C1=C(CCNc2ncnc3nc[nH]c23)CCCC1 | inconclusive: 20 µM [cytotoxic, single point] | –
CC(C)c1ccc(NS(=O)(=O)c2ccc3nc(-c4ccccc4)[nH]c3c2)cc1 | active: 20 µM | –
C[C@@H](c1ccccc1)N1C(=O)[C@H]2[C@@H]3[C@H](O)[C@H](O)CC(=O)[C@H]3CC[C@H]2C1=O | – | inactive: -7.64% [at 9.22 µM] and inactive: 7.42% [at 9.22 µM]
CN(C)C(=O)c1ccc(NC(=O)Cn2nnnc2-c2ccccc2F)cc1 | inconclusive: 0.1 µM [cytotoxic, partial curve] | –

Structure (SMILES) | Potency | activity change, negative = cell killing
O=C(Nc1ccccc1O)c1ccccc1O | inconclusive: 15.8 µM [cytotoxic, partial curve] | –
COc1ccc(Nc2c3c(nc4ccc(NC(=O)/C=C/c5cc(OC)c(OC)c(OC)c5)cc24)CCCC3)cc1OC | active: 10 µM | –
N#Cc1cccc(-c2ccc3ncnc(NCc4cccs4)c3c2)c1 | active: 12.6 µM | –
COc1ccccc1CNC(=O)Cc1c(C)c2c(cc(C)c3c(C)coc32)oc1=O | inactive | –
N#Cc1ccc(-c2cccs2)nc1SCc1c(F)cccc1Cl | inconclusive: 2.51 µM [cytotoxic, partial curve] | –
COc1ccccc1-c1cc(Nc2ccn[nH]2)ncn1 | inconclusive: 10 µM [cytotoxic, partial curve] | –
O=S(=O)(C/C(=C/CO)S(=O)(=O)c1ccccc1)c1ccccc1 | inconclusive: 31.6 µM [cytotoxic, single point] | –
Cc1cc(C)c2nc(N3CCCC(C(=O)NCc4cccc(Cl)c4)C3)sc2c1 (centres undefined) | inconclusive: 0.0316 µM [cytotoxic, full curve, poor fit] | –
N#Cc1cc2c(nc1SCC1COc3ccccc3O1)CCC2 (centres undefined) | inactive | –
COc1cc(NC(=O)C(C)C)ccc1NC(=O)c1ccco1 | inconclusive: 10 µM [cytotoxic, partial curve] | –
Cc1ccc(NC(=O)CSc2cc(=O)n(C)c3ccc(Cl)cc23)c(Br)c1 | inconclusive: 31.6 µM [cytotoxic, single point] | –
Cn1c(C(=O)NCc2cccs2)cc2oc3ccccc3c21 | inconclusive: 7.94 µM [cytotoxic, partial curve, poor fit] | –
O=c1c(-c2ccc(Cl)cc2)nc2cnc(N3CCNCC3)nc2n1-c1ccccc1 | inconclusive: 15.8 µM [cytotoxic, single point] | –
O=C(c1cccs1)c1no[n+]([O-])c1C(=O)c1cccs1 | inconclusive: 31.6 µM [cytotoxic, single point] | –
O=C(CSc1nc2ccccc2s1)N1CCN(C(=O)c2ccco2)CC1 | inactive | –
COc1ccc(NC(=O)c2ccccc2NS(C)(=O)=O)cc1OC | inactive | –
CSc1oc(-c2ccccc2)nc1S(=O)(=O)c1ccc(F)cc1 | inactive | –
COc1cccc(CNC(=O)C2CCN(C(=O)N3CCOc4ccc(Cl)cc43)CC2)c1OC | inactive | –
Cc1nc2c(C(=O)NCc3ccccc3)cnn2c(C)c1Cc1ccc(F)cc1 | inconclusive: 12.6 µM [cytotoxic, partial curve] | –
COc1ccc(-c2nc3cc(NC(=O)Cc4ccc(Cl)cc4)ccc3o2)cc1OC | active: 7.94 µM | –
COc1ccc(-c2nnc(-c3cccs3)o2)cc1OC | inconclusive: 15.8 µM [cytotoxic, single point] | –
Cc1cccc(NC(=O)c2cnn(-c3ccccc3)c2-n2cccc2)c1C | inconclusive: 15.8 µM [cytotoxic, partial curve] | –
Cc1ccc(C(C(=O)NC(C)(C)C)N(CC2CCCO2)C(=O)Cn2nnc(-c3ccc(C)o3)n2)cc1 (centres undefined) | inactive | –

Structure (SMILES) | Potency | activity change, negative = cell killing
O=c1[nH]c(SCc2ccccc2Cl)nc2c1CCC2 | inactive | –
O=S(=O)(Nc1cccc(-c2ccc(N3CCCCC3)nn2)c1)c1cccs1 | active: 6.31 µM | –
COCCn1c(SCC(=O)Nc2ccc(F)c(Cl)c2)nc2c(oc3ccccc32)c1=O | inconclusive: 25.1 µM [cytotoxic, partial curve, poor fit] | –
Cc1ccccc1NS(=O)(=O)c1ccc2[nH]cc(C(=O)N3CCCC3)c(=O)c2c1 | inactive | –
Cc1ccnc(NC(=O)/C=C/c2cccs2)c1 | active: 7.08 µM | –
CN1CCN(C2=C(Cl)C(=O)N(C3CCCCC3)C2=O)CC1 | inconclusive: 20 µM [cytotoxic, single point] | –
COc1ccc(C2c3c(-c4ccccc4O)n[nH]c3C(=O)N2Cc2ccco2)cc1 (centres undefined) | inconclusive: 12.6 µM [cytotoxic, single point] | –
CSc1nc(C)c(C(=O)Nc2ccccc2)c(C)c1C#N | inactive | –
O=C(/C=C/c1cn(CC(O)CN2CCCCCC2)c2ccccc12)c1ccccc1 (centres undefined) | inconclusive: 20 µM [cytotoxic, single point] | –
O=C(CCCn1c(=O)c2cccn2c2cccnc21)NCCc1ccc(Cl)cc1 | inconclusive: 6.31 µM [cytotoxic, full curve, poor fit] | –
COc1ccc(NC(=O)Nc2cccc(OC)c2)cc1 | inconclusive: 12.6 µM [cytotoxic, partial curve] | –
Cc1ccc2c(c1)c1c(c(=O)n(-c3cccc(Cl)c3)c(=O)n1CC(=O)N1CCCC1)n2C | inactive | –
CC(C)(C)c1ccc(C2Sc3ccccc3NC3=C2C(=O)c2ccccc23)cc1 (centres undefined) | inactive | –
CC1O[C@@H](O[C@H]2C(Oc3cc(O)c4c(c3)OC(c3ccc(O)cc3)CC4=O)OC(CO)C(O)C2O)C(O)C(O)C1O (some centres undefined) | inactive | –
CCc1nn(CC(=O)N2CCN(c3cccc(C)c3C)CC2)c(=O)c2cc3occc3n12 | inactive | –
COc1ccc(Cn2c(C(=O)O)c(CNCc3cccc(OC)c3)c3ccc(C)cc32)cc1 | inconclusive: 12.6 µM [cytotoxic, partial curve, poor fit] | –
CCc1nnc(NC(=O)c2nc(S(=O)(=O)Cc3cccc(C)c3)ncc2Cl)s1 | active: 5.01 µM | –
CCn1cc(C(=O)NCCCOC(C)C)c(=O)c2cc(S(=O)(=O)N3CCc4ccccc4C3)ccc21 | inactive | –
CCC(Oc1ccccc1)C(=O)Nc1ccc(O)c(-c2nc3cc(C)ccc3o2)c1 (centres undefined) | – | inconclusive: -51.4% [cytotoxic]
Cc1cccc(N2CCN(C(=O)C3CCCN(S(=O)(=O)c4cccc5nsnc45)C3)CC2)c1C (centres undefined) | inactive | –
CCN(c1ccccc1)S(=O)(=O)c1cc(-c2onc(C)c2C)ccc1OC | inconclusive: 12.6 µM [cytotoxic, single point] | –
O=C(Nc1ccc(N2CCOCC2)cc1)Nc1cnsn1 | inconclusive: 15.8 µM [cytotoxic, single point] | –
COc1ccc(O)c(C(=O)CC(=O)c2ccccc2)c1 | active: 12.6 µM | –
